In the supplement of paper PMC10126150:
Values marked as one replicate rest on one cluster of the flow cell; about a third of the high ones do not repeat.

System: ATP
Assay: switch fluorescence ratio, 500 uM ATP over buffer (Cy3 cluster intensity, sum of 5 cycles each) (fold (ratio)); higher = stronger signal-on switching upon ATP binding; sequences stand for … in TCGTCGGCAGCGTCAGATGTGTATAAGAGACAGTTTTTTTTTTTTTTTTTTTTTTTTT…TC
Conditions: aptamer strand: ATP DNA aptamer (quencher-CACCTGGGGGAGTATTGCGGAGGAAGG + anchor), 100 nM annealed; ATP concentration: 500 uM; one replicate
In short: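 Clusters carrying Cy3-labelled switching strands on a modified Illumina MiSeq flow-cell were annealed to 100 nM quencher-labelled ATP aptamer and imaged in selection buffer. They were imaged again after 15 min with 500 uM ATP at 22 °C, over five buffer/ATP cycles with NaOH stripping and re-annealing in between. For each cluster, the fluorescence ratio is the summed Cy3 intensity of the target cycles divided by that of the buffer cycles, averaged per switch-domain sequence. Clusters outside 100-1000 RFU were left out.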
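Note: ATP exposure 15 min at 22 °C before imaging.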

CCTAGGCATT was tested, and the switch fluorescence ratio was 3.75.
CATTTAATCC was tested, and the switch fluorescence ratio was 0.975.
Sequence TGTCTGTGCG has a switch fluorescence ratio of 1.02.
For AAGCCAGAGT, the switch fluorescence ratio was 0.988.
For AAAAGGGACC, the switch fluorescence ratio was 0.949.
With AGCCCCATTA the switch fluorescence ratio was 1.03.
Sequence CATACCTAAA has a switch fluorescence ratio of 1.05.
Sequence GGGCAGACTT has a switch fluorescence ratio of 1.02.
For CTCTACCGTT, the switch fluorescence ratio was 1.
GGCTC was tested, and the switch fluorescence ratio was 0.943.
In the case of TGATTTTCCG, the switch fluorescence ratio is reported as 1.24.
For TTGGTTCACT, the switch fluorescence ratio was 1.02.
In the case of GCCTCAACGT, the switch fluorescence ratio is reported as 1.03.
GATTAGGAGG showed a switch fluorescence ratio of 0.984.
Work on CCCATTAATC yielded a switch fluorescence ratio of 1.01.
Work on CAGCGACTTT yielded a switch fluorescence ratio of 1.05.
Sequence CAGCTTATTG has a switch fluorescence ratio of 0.971.
TGAATACCAG gave a switch fluorescence ratio of 1.03.
ACTCCTGTTG gave a switch fluorescence ratio of 1.08.
In the case of GTCGTGGTCG, the switch fluorescence ratio is reported as 1.01.
ATGAAGGGCA showed a switch fluorescence ratio of 0.991.
TTTCACAAGA showed a switch fluorescence ratio of 0.972.
Sequence CATGGTTTGG has a switch fluorescence ratio of 1.02.
In the case of TCAGTGTCGC, the switch fluorescence ratio is reported as 0.976.
Sequence CCACTTGTCT has a switch fluorescence ratio of 1.05.
Sequence TCGCACCTTT has a switch fluorescence ratio of 1.07.
TGATAACAAC was tested, and the switch fluorescence ratio was 0.967.
In the case of CTCCAAGTGG, the switch fluorescence ratio is reported as 1.01.
For CGTGCTGTTT, the switch fluorescence ratio was 1.68.
In the case of CTATTAAGCT, the switch fluorescence ratio is reported as 1.03.
With AAGAAGGATT the switch fluorescence ratio was 0.972.
In the case of TCCACATGAG, the switch fluorescence ratio is reported as 1.07.
With CGCCGCATTG the switch fluorescence ratio was 3.03.
With CAAAACAGCA the switch fluorescence ratio was 0.965.
GTTAGTTGCT gave a switch fluorescence ratio of 0.976.
Sequence AAGGGCGAAA has a switch fluorescence ratio of 0.959.
With TTCATGATCT the switch fluorescence ratio was 0.988.
TATGGACT gave a switch fluorescence ratio of 0.998.
For CTTGGTACCT, the switch fluorescence ratio was 1.01.
In the case of CAAGAATACC, the switch fluorescence ratio is reported as 1.01.
Sequence TAGGAAGGGC has a switch fluorescence ratio of 0.992.
TCCGTGGTCT was tested, and the switch fluorescence ratio was 1.11.
Work on TAATAACTGG yielded a switch fluorescence ratio of 0.99.
CGACGAGAAG was tested, and the switch fluorescence ratio was 1.04.
Sequence GCCCCCCACC has a switch fluorescence ratio of 1.56.
Work on AAATTTTCCA yielded a switch fluorescence ratio of 1.05.
CATGCGGGTA was tested, and the switch fluorescence ratio was 0.998.
With TCCAGAAGGA the switch fluorescence ratio was 0.95.
With ATACCTATAA the switch fluorescence ratio was 0.991.
Work on TCAGAACATT yielded a switch fluorescence ratio of 0.99.
Work on CCGCACAGGG yielded a switch fluorescence ratio of 1.93.
For CTGATTTTCA, the switch fluorescence ratio was 1.02.
Sequence TAGCCAGCAC has a switch fluorescence ratio of 1.11.
Sequence TGCATTTTGA has a switch fluorescence ratio of 0.979.
For AGAGGAAATG, the switch fluorescence ratio was 1.04.
For CTAAAGGGGT, the switch fluorescence ratio was 1.
With GAAACCGTTG the switch fluorescence ratio was 1.05.
Work on TAGTAAGTGG yielded a switch fluorescence ratio of 0.991.
With AGTGTTGAAG the switch fluorescence ratio was 1.01.
Sequence CGATGTTTAT has a switch fluorescence ratio of 1.03.
Work on CTGAGGCCCC yielded a switch fluorescence ratio of 1.02.
Work on CACTGTATGT yielded a switch fluorescence ratio of 1.24.
Sequence GCAAGTTCTT has a switch fluorescence ratio of 0.985.
TCATAGTACT was tested, and the switch fluorescence ratio was 1.02.
For ATATTTAGAT, the switch fluorescence ratio was 1.
With CTCATCGTGA the switch fluorescence ratio was 1.34.
Work on TTTCCCTG yielded a switch fluorescence ratio of 1.04.
Work on GGCGTCTACG yielded a switch fluorescence ratio of 1.04.
CCGAAAATAT gave a switch fluorescence ratio of 1.25.
CCGCGGACTT was tested, and the switch fluorescence ratio was 1.2.
Sequence ATACGAGCGA has a switch fluorescence ratio of 1.06.
TGTCTTCCGC was tested, and the switch fluorescence ratio was 1.2.
AAGATCAGAC was tested, and the switch fluorescence ratio was 0.985.
CGGTATGAG was tested, and the switch fluorescence ratio was 0.995.
In the case of AGTCTAATGC, the switch fluorescence ratio is reported as 0.87.
CACGTACCGC was tested, and the switch fluorescence ratio was 1.51.
TAACATGTT was tested, and the switch fluorescence ratio was 0.995.
ATTATGTGGG showed a switch fluorescence ratio of 0.934.
For ATGCGCCCTT, the switch fluorescence ratio was 0.984.
In the case of TTTAGGGCGA, the switch fluorescence ratio is reported as 1.02.
GTCAGAAGTA gave a switch fluorescence ratio of 1.02.
For TTTAAGTTA, the switch fluorescence ratio was 1.01.
Sequence TTAACCGTTG has a switch fluorescence ratio of 1.
TTGAGGTGGA was tested, and the switch fluorescence ratio was 0.98.
Sequence ACACGGGTAT has a switch fluorescence ratio of 1.01.
